{"source": "PubChem BioAssay (NCATS)", "note": "The shares of active, inactive and inconclusive entries below differ from those in the screen. A potency beside an inconclusive call is a rough fit, not a confirmed value. Where a structure was tested more than once in an assay, its records may differ in their call. The source made the active and inactive calls. Calls follow the shape of the dose curve; as a rule, active = well fitted activation curve with a large enough effect; inconclusive = small, poorly fitted or top-dose-only effect; inactive = no such curve, though single readings can be large or run the other way. Potency is read from the fitted curve at half-maximal effect; tags tell the direction and shape of the fitted curve."}
{"target": "Cellular tumor antigen p53 (Homo sapiens) (UniProt P04637)", "sequence (P04637 whole entry, looked up)": "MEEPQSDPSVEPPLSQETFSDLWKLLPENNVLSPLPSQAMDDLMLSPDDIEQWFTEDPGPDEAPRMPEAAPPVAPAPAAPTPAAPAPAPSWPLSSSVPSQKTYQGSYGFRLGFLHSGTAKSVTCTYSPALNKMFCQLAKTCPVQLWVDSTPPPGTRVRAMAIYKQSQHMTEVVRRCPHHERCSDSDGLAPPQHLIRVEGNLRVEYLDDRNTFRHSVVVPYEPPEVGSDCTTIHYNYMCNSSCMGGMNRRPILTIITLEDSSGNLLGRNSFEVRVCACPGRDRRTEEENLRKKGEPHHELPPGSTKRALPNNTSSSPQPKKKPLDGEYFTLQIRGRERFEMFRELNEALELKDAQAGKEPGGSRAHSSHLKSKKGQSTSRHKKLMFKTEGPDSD", "assay": "Primary qHTS for small molecule compounds that upregulate eGFP-tagged delta133p53alpha (in N-terminal) cells. (AID 2060322);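 also: cells pre-induced with doxycycline then dosed without doxycycline; nearly all actives have a fitted effect of over 75% in size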;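 as to activation: series mostly up to about 56 µM; 0% = DMSO vehicle and 100% = reference activator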", "conditions": "NCI-H358 eGFP-delta133p53alpha fluorescence, 24 h; activation: active compounds read high", "summary_of_the_method": "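NCI-H358 cells pre-induced 24 h with 10 ng/ml doxycycline for eGFP-delta133p53alpha, plated dox-free and exposed 24 h at 37C to titrated compounds. Fixed, Hoechst-stained; gated GFP peak intensity by laser scanning cytometry, normalized to DMSO (0%) and 57.5 uM 5-azacytidine (100%).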"}
{"smiles": "CC(=O)C1=C(O)C=C2Oc3c(C(C)=O)c(O)c(C)c(O)c3[C@]2(C)C1=O", "activation": "inactive: -2.68%"}
{"smiles": "Cc1c[nH]c2nccc(Oc3c(F)cc(Nc4cc(Cl)nc(N)n4)cc3F)c12", "Potency": "inconclusive: 7.57 µM [activator, full curve, poor fit]"}
{"smiles": "COC(=O)[C@]12CCC(C)(C)C[C@@H]1[C@@H]1C(=O)C=C3[C@@]4(C)C=C(C#N)C(=O)C(C)(C)[C@@H]4CC[C@@]3(C)[C@]1(C)CC2", "Potency": "active: 10.9 µM"}
{"smiles": "C/C=C(/COC(=O)/C(C)=C/C)C(=O)OC(CC)c1ccc(OC)c(OC)c1", "note": "(stereo not given)", "activation": "inactive: -15.2%"}
{"smiles": "CCCC(=O)Nc1ccc(O)c(C(C)=O)c1", "activation": "inconclusive: -25.4% [activator]"}
{"smiles": "C=C1C(=O)OC2CC3(C)C(O)C(=O)C=C(C)C3CC12", "note": "(stereo not given)", "Potency": "inconclusive: 9.53 µM [activator, partial curve]"}
{"smiles": "CN1CCC(NC(=O)c2cc(-c3c(O)cc(O)cc3Oc3ccc([N+](=O)[O-])cc3)on2)CC1", "activation": "inactive: 5.25%"}
{"smiles": "Nc1ccc(N=Nc2ccccc2)c(N)n1", "Potency": "inconclusive: 17.4 µM [activator, partial curve]"}
{"smiles": "C[C@H](Nc1cc2c(-c3ccc4c(c3)OCO4)noc2cn1)c1ccccc1", "activation": "inactive: 4.77%"}
{"smiles": "CNCC[C@H](Oc1cccc2ccccc12)c1cccs1", "Potency": "active: 17.4 µM"}
{"smiles": "C=C(C)C(=O)OC1CC(CO)CCC/C(CO)=C/C2OC(=O)C(=C)C21", "note": "(stereo not given)", "Potency": "active: 14.8 µM"}
{"smiles": "CN(c1ccc(NC(=O)Nc2ccccc2)cc1)S(=O)(=O)c1cnn(-c2ccc(F)cc2)c1", "Potency": "inconclusive: 37.9 µM [activator, single point]"}
{"smiles": "CCN1CCN(Cc2ccc(NC(=O)c3ccc(C)c(Oc4ccnc5[nH]ccc45)c3)cc2C(F)(F)F)CC1", "Potency": "active: 14.8 µM"}
{"smiles": "CC1=C2CC3OC3(C)CCC3OC3(C)CC2OC1=O", "note": "(stereo not given)", "activation": "inactive: 9.82%"}
{"smiles": "C=C(C)C(=O)O[C@H]1C[C@@](C)(O)C(=O)CC(O)/C(C)=C\\[C@H]2OC(=O)C(=C)[C@H]12", "note": "(stereo not given in full)", "Potency": "inconclusive: 18.6 µM [activator, single point]"}
{"smiles": "O=C(COCCOCCOCC(=O)Nc1c(I)cc(I)c(C(=O)O)c1I)Nc1c(I)cc(I)c(C(=O)O)c1I", "activation": "inactive: 10%"}
{"smiles": "C[C@H](NC(=O)CCc1nc2ccccc2c(=O)[nH]1)c1ccccc1", "activation": "inconclusive: -11.2% [activator]"}
{"smiles": "CC(=O)O[C@@H]1[C@@H](CO)O[C@@](CO)(O[C@H]2O[C@H](COC(=O)/C=C/c3ccccc3)[C@@H](O)[C@H](O)[C@H]2O)[C@H]1O", "activation": "inactive: 2.29%"}
{"smiles": "O=C(O)CN(CCN(CC(=O)O)CC(=O)O)CCN(CC(=O)O)CC(=O)O", "activation": "inconclusive: -36.8% [activator]"}
{"smiles": "COc1cc(N)c(Cl)cc1C(=O)OCCN1CCCCC1", "activation": "inactive: -2.92%"}
{"smiles": "CO[C@H]1C=CO[C@@]2(C)Oc3c(C)c(O)c4c(O)c(c(/C=N/N5CCN(C)CC5)c(O)c4c3C2=O)NC(=O)/C(C)=C\\C=C[C@H](C)[C@H](O)[C@@H](C)[C@@H](O)[C@@H](C)[C@H](OC(C)=O)[C@@H]1C", "Potency": "inconclusive: 24.6 µM [activator, single point]"}
{"smiles": "CN1CCC(c2cn(C)c3ccc(OS(=O)(=O)c4c(F)cccc4F)cc23)CC1", "Potency": "inconclusive: 3.01 µM [activator, full curve]"}
{"smiles": "N#C[C@H]1C[C@H]2C[C@@H]2N1C(=O)[C@@H](N)C12CC3CC(CC(O)(C3)C1)C2", "Potency": "inconclusive: 12.3 µM [activator, partial curve]"}
{"smiles": "CC1=C2C3OC(=O)C(C)C3(O)CCC2(C)CCC1=O", "note": "(stereo not given)", "activation": "inactive: -20.5%"}
{"smiles": "Cc1cccc(C)c1-n1c(=O)c2cnc(Nc3ccc(N4CCN(C)CC4)cc3)nc2n2c3ccccc3nc12", "Potency": "active: 30.1 µM"}
{"smiles": "C[C@@H]1COCCN1c1cc(C2(S(C)(=O)=O)CC2)nc(-c2cccc3[nH]ccc23)n1", "Potency": "inconclusive: 21.3 µM [activator, single point]"}
{"smiles": "CC[C@H](C)[C@H](NC(=O)[C@H](Cc1ccc(O)cc1)NC(=O)[C@@H](N)C(C)C)C(=O)N[C@@H](Cc1cnc[nH]1)C(=O)N1CCC[C@H]1C(=O)N[C@@H](Cc1ccccc1)C(=O)O", "activation": "inactive: 0.333%"}
{"smiles": "CC1(C)O[C@@H]2C[C@H]3[C@@H]4C[C@H](F)C5=CC(=O)CC[C@]5(C)[C@H]4[C@@H](O)C[C@]3(C)[C@]2(C(=O)CO)O1", "Potency": "inconclusive: 13.8 µM [activator, partial curve, poor fit]"}
{"smiles": "CCCCCCCCn1cc(CC(N)=O)c2cc(-c3cccc(C)c3)ccc21", "Potency": "inconclusive: 43.2 µM [activator, single point]"}
{"smiles": "CC(N)(C(=O)O)c1ccc(C(=O)O)cc1", "note": "(stereo not given)", "activation": "inactive: 7.46%"}
